Drawing on PubChem BioAssay (NCI), this text covers TGI and GI50 for 38 compounds.

The structures appear in SMILES notation. Values joined by “and” are separate entries in the source; they are usually repeats but may differ in a detail not shown here. Identical values can stand only once.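 Step 1: Grow cells in 96-well plates. Step 2: Expose to compound for 48 hours at 5 concentrations. Step 3: Interpolate endpoints linearly; if unreached, use highest concentration. The concentration for 50% growth inhibition is given as GI50. TGI: concentration producing complete growth inhibition.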

The assay concerns NCI-H322M lung. In words: NCI tumour cell line growth inhibition, 48 h.
`Cc1ccc(NCC2(/N=C/c3ccccc3)OC(CO)C(O)C2O)cc1` (stereo not given) returned a TGI above 100 µM.

Compound `S=C(NCc1ccccc1)Nc1sc(=NCc2ccccc2)nc2sc3c(c12)CCN(N1CCc2c(sc4nc(=NCc5ccccc5)sc(NC(=S)NCc5ccccc5)c24)C1)C3` came in with a TGI of 76.6 µM.

`O=C(C[n+]1ccccc1)N/N=C(/CCC(=O)N(Cc1ccccc1)Cc1ccccc1)CC(=O)c1ccccc1` returned a TGI above 100 µM.

Take `Cc1ccc(S(=O)(=O)n2cc(C=O)c(-c3cn(S(=O)(=O)c4ccc(C)cc4)cc3-c3cn(S(=O)(=O)c4ccc(C)cc4)cc3C=O)c2)cc1`: the TGI was above 100 µM.

Regarding `Nc1nc(Cl)cc(NCC2(CCO)CCC2)n1`, the TGI is above 100 µM.

For `CC1=C(C#N)C23C(=O)N(c4ccccc4)C(=O)C2=C(O)C=CC3(O)N1Cc1ccc(Cl)cc1Cl` (stereo not given), the GI50 is 7.13 µM and the TGI stood at 20.9 µM.

Take `O=[N+]([O-])c1ncc(N(CCO)CCO)s1`: the TGI was above 100 µM.

Take `CCCCCCCCCCCCSC(=S)c1c(C)[nH]n(-c2ccccc2)c1=O`: the TGI was 48.6 µM.

Regarding `COc1ccc(/[N+]([O-])=C/c2ccc(OC(=S)S)c(OC)c2)cc1`, the TGI is above 100 µM.

For `C#CC1(O)CCC2[C@@H]3CCc4cc(Oc5nc(F)nc(-c6c(C)c(C(=O)OCC)n7ccccc67)n5)ccc4C3CC[C@@]21C` (stereo not given in full), the TGI was above 100 µM.

`CC(=O)OCc1c(O)c2c([nH]c1=O)CCc1ccccc1-2` showed a TGI above 350 µM.

In turn, `COC(=O)C(CNC(=O)/C=C/c1ccc(OC)c(OC)c1)NC(=O)/C=C/c1ccc(OC)c(OC)c1` (stereo not given) showed a TGI above 100 µM.

`Cc1ccc2c(c1)nc1n2C(c2c(F)cccc2F)SC1` (stereo not given) gave a TGI above 100 µM.

In turn, `CC(C)(C)c1ccc2c(c1)OP1(Oc3c(Cl)cc(Cl)c4cccnc34)(O2)Oc2ccc(C(C)(C)C)cc2O1` showed a TGI of 26.1 µM.

Take `C=C(C)[C@@H]1CC[C@]2(CO)CC[C@]3(C)[C@H](CC[C@@H]4[C@@]5(C)CCCNC(C)(C)[C@@H]5CC[C@]43C)[C@@H]12`: the GI50 was 1.63 µM and the TGI turned out to be 3.03 µM.

`CCOC(=O)c1ccc(-n2cnc(-c3ccc([N+](=O)[O-])cc3)c2)cc1`: the TGI is above 100 µM.

As to `CC1(C)N=C(N)N=C(N)N1c1ccc(CNC(=O)Nc2ccc(S(=O)(=O)F)c(Cl)c2)c(Cl)c1`, the GI50 is 1.38 µM and the TGI was above 100 µM.

Turning to `COc1ccc2c(c1)c1c3c(ccc4ncn2c43)N(CCO)CCN=1`, the TGI came to 0.752 µM.

Turning to `Cc1ccc(OCC2CO2)c(Br)c1` (stereo not given), the TGI was above 100 µM.

Regarding `COc1cc(-c2nn(-c3cccc(NC(=O)Nc4ccc(Cl)c(C(F)(F)F)c4)c3)cc2-c2ccncc2)ccc1Cl`, the GI50 is 1.5 µM and the TGI was 13.9 µM.

In the case of `CN1CCC2(CC1)SSC1(CCN(C)CC1)S2`, the TGI was above 100 µM.

For `NC(=S)N1N=C2CCCCCC[C@@H]2[C@H]1c1ccccc1`, the TGI is above 100 µM.

With `c1ccc(SC(Sc2ccccc2)=C2CCC2)cc1`, the TGI is above 100 µM.

Compound `CCCCSC1=N/C(=C\c2ccccc2O)C(=O)N1` registered a TGI above 100 µM.

Compound `COC(=O)[C@H](Cc1ccccc1)NC(=O)c1ccc(CNC(=O)/C=C/c2ccc(OCc3ccccc3)cc2)cc1` came in with a TGI above 88 µM.

On to `c1ccc2c3c(ccc2c1)-c1[nH]ncc1CCO3`, for which the TGI was above 100 µM.

`COC[C@H](NC(=O)c1cnc(C)s1)C(=O)N[C@@H](COC)C(=O)N[C@@H](Cc1ccccc1)C(=O)[C@@]1(C)CO1`: the GI50 is above 93 µM and the TGI was above 100 µM.

Regarding `COC(=O)/C=C1/SC(=Nc2cccc(Cl)c2)N(CCc2c[nH]c3ccc(O)cc23)C1=O`, the GI50 is 1.87 µM and the TGI is 3.93 µM.

`Cc1nc(OCc2ccccc2)c2ncn(CCO)c2n1`: the TGI was above 100 µM.

Compound `O=C(CC1(O)C(=O)Nc2c(Cl)cc(Cl)cc21)c1ccccc1` (stereo not given) displayed a TGI above 100 µM.

Compound `O=C(Cc1ccc2ccccc2c1)NCc1ccc(C(=O)NCCc2ccccc2)cc1` returned a TGI above 100 µM.

Turning to `Nc1ncnc2c1ncn2[C@H]1C=C[C@@H](NO)C1`, the TGI was above 100 µM.

Take `Cn1c(-c2ccco2)ccc1-c1ccc(C=O)o1`: the TGI is above 100 µM.

In turn, `O=S1(=O)c2ccccc2N(O)C2=NCCN21` had a TGI above 100 µM.

As to `O=S(=O)(N=C1C(Cl)=C(Cl)C(=NS(=O)(=O)c2ccccc2)C(Cl)=C1Cl)c1ccccc1`, the GI50 was 20.6 µM and the TGI turned out to be 55.1 µM.

`O=P1(c2ccccc2)C(c2ccccc2)CCC1c1ccccc1` (stereo not given) had a TGI above 100 µM.

Regarding `C#C[C@]1(O)CC[C@H]2[C@@H]3CCC4=C/C(=N\OCCN5CCCCC5)CC[C@]4(C)[C@H]3CC[C@@]21C`, the TGI was 28 µM.

Turning to `O=C1c2ccccc2-c2c3c(cc4ccnc1c24)OCO3`, the TGI was 39.5 µM and > 100 µM.
